Reference: PubChem BioAssay AID1460 (National Center for Advancing Translational Sciences (NCATS), 2008)
About 5,800 (2.1%) of roughly 270,000 compounds were called active. Inconclusive means that the source gave no clear call. Such entries were picked first, then a sample of the others. The call rests on the fitted dose curve; in most records, active means well fitted inhibition curve with a large enough effect; inconclusive means small, poorly fitted or top-dose-only effect; inactive means flat fitted curve, though single readings scatter. Where the call is inconclusive, the potency comes from a doubtful curve fit. Where a structure was tested more than once in an assay, its records may differ in their call.

The compounds below were run against Microtubule-associated protein tau (Homo sapiens) (UniProt P10636) (assay: qHTS for Inhibitors of Tau Fibril Formation, Thioflavin T Binding). Settings: recombinant tau K18 P301L, heparin-induced fibrillization, ThT fluorescence; series mostly up to 57.4 µM.
Outline: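 Using a mix of unlabeled (15 uM) and Alexa 594-labeled (0.24 uM) tau K18 P301L, heparin-triggered fibrillization over 6 hr at 37 C was scored by ThT fluorescence.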
Further: nearly all actives have a fitted effect of over 55% in size.
Potency means the concentration at half of the fitted maximal effect; tags describe the fitted curve by direction and shape.

Chain of UniProt P10636 (P10636 whole entry, looked up): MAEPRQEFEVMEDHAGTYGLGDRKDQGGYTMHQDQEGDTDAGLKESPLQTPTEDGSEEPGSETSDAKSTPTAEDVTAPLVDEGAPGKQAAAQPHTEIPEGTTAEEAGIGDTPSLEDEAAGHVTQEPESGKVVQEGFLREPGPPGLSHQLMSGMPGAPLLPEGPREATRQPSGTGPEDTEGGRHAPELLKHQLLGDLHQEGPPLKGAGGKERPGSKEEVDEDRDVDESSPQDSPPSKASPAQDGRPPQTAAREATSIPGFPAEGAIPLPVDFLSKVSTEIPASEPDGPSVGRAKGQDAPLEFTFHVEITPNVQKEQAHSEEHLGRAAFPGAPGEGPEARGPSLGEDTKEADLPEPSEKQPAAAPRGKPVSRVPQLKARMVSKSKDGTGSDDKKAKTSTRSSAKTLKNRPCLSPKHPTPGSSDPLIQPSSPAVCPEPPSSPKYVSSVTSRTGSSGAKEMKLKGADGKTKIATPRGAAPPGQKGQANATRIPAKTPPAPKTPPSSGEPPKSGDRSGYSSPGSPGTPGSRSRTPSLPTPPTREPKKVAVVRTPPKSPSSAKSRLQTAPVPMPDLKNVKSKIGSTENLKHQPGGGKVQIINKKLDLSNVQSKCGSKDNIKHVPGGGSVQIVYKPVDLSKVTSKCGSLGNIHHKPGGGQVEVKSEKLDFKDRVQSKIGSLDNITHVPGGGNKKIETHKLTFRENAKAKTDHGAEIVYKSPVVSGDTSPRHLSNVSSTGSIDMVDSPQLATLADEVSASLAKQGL

Which Potency does the source give for `Cc1cccc(N2CCN(C(=O)CCCn3c(=S)[nH]c4cc5c(cc4c3=O)OCO5)CC2)c1C` here?
Its Potency is inconclusive: 3.98 µM [inhibitor, partial curve].

With `Cc1ccc(CNC(=O)CCS(=O)(=O)c2ccc(Br)cc2)cc1` as the compound, how does the Potency read?
The Potency was “inactive”.

For `Cc1n(CC(O)COC2CCCCC2)c2ccccc2[n+]1C` (centres undefined), which Potency is on record?
The Potency was “inactive”.

Which Potency does the source give for `CCOC(=O)N1CCC(c2cc(=O)n(-c3ccccc3)[nH]2)CC1` here?
The Potency was inconclusive: 2.51 µM [inhibitor, full curve].

With `Cc1ccc(CC(=O)NCc2nc(-c3ccccc3)no2)cc1` as the compound, how does the Potency read?
Its Potency is “inactive”.

Which Potency does the source give for `C=CCNc1cc(N2CCCC2)ccc1[N+](=O)[O-]` here?
Its Potency is inconclusive: 8.91 µM [inhibitor, partial curve].

With `CC1(OC(=O)C2CCCC2)C(=O)C=C2C=C(c3ccsc3)N(CCc3c[nH]c4ccccc34)C=C2C1=O` (centres undefined) as the compound, how does the Potency read?
The Potency was active: 4.47 µM.

`COc1ccc(/C=N/NC(=O)CSCc2ccc([N+](=O)[O-])cc2)cc1OC` was tested. Which Potency did it give?
The Potency was inconclusive: 28.2 µM [inhibitor, single point].

`CCCCOC(=O)c1ccc(NC(=O)Nc2ccc(OC)c(OC)c2)cc1` was tested. Which Potency did it give?
The Potency was inconclusive: 15.8 µM [inhibitor, partial curve].

For `C=CCOc1cccc(C2C(C(=O)c3ccc(C)o3)=C(O)C(=O)N2Cc2ccncc2)c1` (centres undefined), which Potency is on record?
Its Potency is inconclusive: 22.4 µM [inhibitor, partial curve].

With `O=C(NC(=S)N1CCN(c2ccc([N+](=O)[O-])cc2)CC1)c1ccccc1Cl` as the compound, how does the Potency read?
The Potency was inconclusive: 10 µM [inhibitor, partial curve].

Which Potency does the source give for `C=CCC(C)(NCc1ccccc1)C(=O)OCC` (centres undefined) here?
Its Potency is “inactive”.

`O=C(N/N=C/c1ccc(N2CCCCC2)o1)c1ccccc1[N+](=O)[O-]` was tested. Which Potency did it give?
The Potency was inconclusive: 14.1 µM [inhibitor, partial curve].

Which Potency does the source give for `CCN(CC)CCCC(C)n1c(-c2ccccc2)nc2c(NCc3ccccc3)nc(C)nc21` (centres undefined) here?
Its Potency is “inactive”.

Which Potency does the source give for `O=C(Nc1nnc(CCOCCOCCc2nnc(NC(=O)c3ccco3)s2)s1)c1ccco1` here?
Its Potency is inconclusive: 35.5 µM [inhibitor, single point].

How did the Potency turn out when `CNc1cccc2c1C(=O)c1ccccc1C2=O` was run?
Its Potency is active: 8.91 µM.

For `CCCN(CCC)C(=O)C1CCN(c2cc(C)nc3c(-c4ccc(Cl)cc4)c(C)nn23)CC1`, which Potency is on record?
The Potency was inconclusive: 28.2 µM [inhibitor, single point].

How did the Potency turn out when `CC(C)c1ccc(/C=C/C(=O)Nc2nc3ccc([N+](=O)[O-])cc3s2)cc1` was run?
Its Potency is inconclusive: 2.82 µM [inhibitor, partial curve].

For `O=C(CN1CCCCC1)N=Nc1c(O)[nH]c2ccccc12`, which Potency is on record?
The Potency was “inactive”.

`CCOC(=O)c1c(/N=C/c2ccc(C)cc2O)sc2c1CCC2` was tested. Which Potency did it give?
The Potency was inconclusive: 17.8 µM [inhibitor, partial curve].

For `C/C(=N/O)c1ccc2c(c1)OCCOCCOc1cc(/C(C)=N/O)ccc1OCCOCCO2`, which Potency is on record?
The Potency was inconclusive: 22.4 µM [inhibitor, partial curve].

Which Potency does the source give for `COc1cccc(C(=O)Nc2nc(-c3nnn(-c4cccc(Cl)c4C)c3C)ns2)c1` here?
Its Potency is “inactive”.

With `CC(C)Oc1ccc(C(=O)NC(=S)Nc2ccc(CN3CCOCC3)cc2)cc1` as the compound, how does the Potency read?
Its Potency is “inactive”.

Which Potency does the source give for `CC(=O)c1cc(F)ccc1OCC(=O)N1CCN(c2ccc(F)cc2)CC1` here?
Its Potency is “inactive”.

How did the Potency turn out when `Cc1ccc(C(=O)NCCn2cc(SCC(=O)Nc3cc(C)on3)c3ccccc32)cc1` was run?
Its Potency is inconclusive: 31.6 µM [inhibitor, single point].

How did the Potency turn out when `CN(C)c1ccc(C(CNC(=O)c2ccc(C#N)cc2)c2c[nH]c3ccccc23)cc1` (centres undefined) was run?
The Potency was inconclusive: 15.8 µM [inhibitor, partial curve].

With `COc1ccc(N2CCN(C(=O)c3ccc(COc4ccc5c(C)cc(=O)oc5c4)cc3)CC2)cc1` as the compound, how does the Potency read?
Its Potency is inconclusive: 3.98 µM [inhibitor, partial curve].

`COc1ccc(Oc2nc(SC)nc3ccccc23)cc1` was tested. Which Potency did it give?
Its Potency is inconclusive: 28.2 µM [inhibitor, partial curve, poor fit].

With `Cc1cccc(C(=O)Oc2csc(=S)n2C(=O)c2cccc(C)c2)c1` as the compound, how does the Potency read?
Its Potency is active: 12.6 µM.

`Cc1nc2cc(N=NC3=C(O)CCCC3=O)ccc2s1` was tested. Which Potency did it give?
The Potency was active: 15.8 µM.

For `Cc1cccc(C)c1OCC(=O)N=Nc1c(O)[nH]c2ccc(Br)cc12`, which Potency is on record?
Its Potency is inconclusive: 15.8 µM [inhibitor, partial curve].

How did the Potency turn out when `Cc1ccc(C)c(N2CCN(C(=O)Cn3cnc4nc5c(cc4c3=O)CCCC5)CC2)c1` was run?
The Potency was “inactive”.

With `O=C(NCc1ccco1)c1ccc2nc3sc4c(c3c(=O)n2c1)CCCC4` as the compound, how does the Potency read?
The Potency was active: 14.1 µM.

How did the Potency turn out when `C/C(=N\NC(=O)c1ccc(N/N=C(\C)c2ccc(O)cc2)cc1)c1ccc(O)cc1` was run?
Its Potency is active: 3.16 µM.

With `CCCc1nn2c(=O)cc(COC(=O)c3ccc4c(c3)OCO4)nc2s1` as the compound, how does the Potency read?
The Potency was inconclusive: 28.2 µM [inhibitor, partial curve].

For `COc1ccc2[nH]c3c(=O)n(/N=C/[C@H]4C(C)C=C(C)CC4C)c(=O)[nH]c3c2c1` (some centres undefined), which Potency is on record?
The Potency was inconclusive: 8.91 µM [inhibitor, full curve, poor fit].

`Cc1nnc(NC(=O)c2sc3nc(-c4cccs4)cc(C(F)(F)F)c3c2N)s1` was tested. Which Potency did it give?
Its Potency is active: 12.6 µM.

With `CC(C)c1onc(C(=O)N(C)C2CCCCC2)c1[N+](=O)[O-]` as the compound, how does the Potency read?
The Potency was inconclusive: 39.8 µM [inhibitor, single point].

With `C=CCNC(=O)c1ccc(Sc2ccccc2)c([N+](=O)[O-])c1` as the compound, how does the Potency read?
Its Potency is inconclusive: 15.8 µM [inhibitor, partial curve].

How did the Potency turn out when `Nn1cc(-c2ccccc2)nc1SCC(=O)Nc1ccc2c(c1)OCO2` was run?
The Potency was “inactive”.

`CCOc1ncccc1C(=O)OCC(=O)c1ccc(F)cc1` was tested. Which Potency did it give?
Its Potency is “inactive”.

With `CCOc1ccc(NC(=O)CSc2nnc(CCNC(=O)c3ccc(OC)cc3)n2C)cc1` as the compound, how does the Potency read?
Its Potency is inconclusive: 7.94 µM [inhibitor, full curve].

How did the Potency turn out when `CCSC1=N/C(=C\c2ccc(-c3ccccc3[N+](=O)[O-])o2)C(=O)S1` was run?
The Potency was active: 5.01 µM.

With `N#Cc1cc2c(=O)n3ccccc3nc2n(Cc2ccco2)c1=NC(=O)c1ccco1` as the compound, how does the Potency read?
The Potency was inconclusive: 1.41 µM [inhibitor, full curve].

With `C[C@@](N)(Cc1ccc(O)c(O)c1)C(=O)O` as the compound, how does the Potency read?
Its Potency is active: 4.47 µM.

With `O=C(C1CCN(S(=O)(=O)c2cccc3cccnc23)CC1)N1CCn2c1nc1ccccc12` as the compound, how does the Potency read?
Its Potency is inconclusive: 0.355 µM [inhibitor, full curve, poor fit].

Which Potency does the source give for `CCC(CC)C(=O)N1CCc2cc(OC)c(OC)cc2C1COc1ccc(F)cc1` (centres undefined) here?
Its Potency is “inactive”.

Which Potency does the source give for `Cc1cc(N2CCCC2=O)cc(C)c1S(=O)(=O)NCCOc1ccc(C(C)(C)C)cc1` here?
The Potency was “inactive”.

How did the Potency turn out when `O=C(CNC(=O)c1cccc(Br)c1)N/N=C/c1cc(Br)cc(Br)c1O` was run?
The Potency was inconclusive: 12.6 µM [inhibitor, partial curve].

How did the Potency turn out when `Cc1nc(NC(=O)c2ccccc2)sc1-c1csc(Nc2cccc(F)c2)n1` was run?
Its Potency is active: 7.94 µM.

How did the Potency turn out when `COc1ccc(CNCc2ccco2)cc1OCc1ccccc1` was run?
Its Potency is “inactive”.

How did the Potency turn out when `COc1cc(NC(=O)CSc2ncnc3scc(-c4ccccc4)c23)c(C(=O)O)cc1OC` was run?
The Potency was inconclusive: 12.6 µM [inhibitor, partial curve].

With `O=C(CC1C(=O)NCCN1Cc1ccoc1)NCCc1ccc(Cl)cc1` (centres undefined) as the compound, how does the Potency read?
Its Potency is inconclusive: 31.6 µM [inhibitor, partial curve].

`Cc1ccc(CNC(=O)CSc2c(C(C)C)cnc3c2c(=O)n(C)c(=O)n3C)cc1` was tested. Which Potency did it give?
Its Potency is “inactive”.

How did the Potency turn out when `O=C(Nc1ccc(Nc2ccncc2)cc1)c1ccc(Nc2ccnc3ccc([N+](=O)[O-])cc23)cc1[N+](=O)[O-]` was run?
Its Potency is inconclusive: 2.82 µM [inhibitor, full curve].

With `C=CCNc1nnc(SCC(=O)N2CCCCC2)c2ccccc12` as the compound, how does the Potency read?
Its Potency is inconclusive: 28.2 µM [inhibitor, partial curve].

`Cc1ccc(C)n1-c1ccc(-c2ccnc(N)n2)cc1` was tested. Which Potency did it give?
The Potency was inconclusive: 17.8 µM [inhibitor, partial curve].

Which Potency does the source give for `CCOc1cc(/C=C(\C#N)C(=O)Nc2ccc(OC)cc2)ccc1OCc1cc(=O)n2nc(CC)sc2n1` here?
The Potency was inconclusive: 3.16 µM [inhibitor, full curve].

With `CCc1cccc(C)c1NC(=O)CN1C(=O)c2cccc3cccc1c23` as the compound, how does the Potency read?
Its Potency is “inactive”.

With `COc1ccc(N2C(=O)CC(Sc3nnnn3-c3ccc(F)cc3)C2=O)cc1` (centres undefined) as the compound, how does the Potency read?
Its Potency is inconclusive: 39.8 µM [inhibitor, single point].

For `Cc1cccc(NS(=O)(=O)c2ccc3[nH]c(=O)cc(C(=O)OC(C)C(=O)Nc4ccc([N+](=O)[O-])cc4)c3c2)c1` (centres undefined), which Potency is on record?
The Potency was inconclusive: 14.1 µM [inhibitor, partial curve].

For `C#CCn1c(=NC(=O)c2cccs2)sc2cccc(OCC)c21`, which Potency is on record?
Its Potency is inconclusive: 4.47 µM [inhibitor, partial curve].

Which Potency does the source give for `O=Cc1sc(=O)n(Cc2cccc(C(=O)O)c2)c1Cl` here?
The Potency was active: 12.6 µM.

For `O=C(NCc1ccco1)c1cc(S(=O)(=O)N2CCOCC2)c(Cl)cc1Cl`, which Potency is on record?
Its Potency is “inactive”.

With `Cc1ccc(-n2cc(-c3ccccc3)c3c(N4CCN(C)CC4)ncnc32)cc1` as the compound, how does the Potency read?
Its Potency is inconclusive: 17.8 µM [inhibitor, partial curve, poor fit].

For `Cc1cccc(/C(N)=N/OC(=O)N2c3ccccc3Sc3ccccc32)c1`, which Potency is on record?
Its Potency is inconclusive: 12.6 µM [inhibitor, partial curve].

With `CCOC(=O)c1c(C2CC2)csc1NC(=O)COC(=O)CCS(=O)(=O)c1ccc(C)cc1` as the compound, how does the Potency read?
The Potency was inconclusive: 10 µM [inhibitor, partial curve, poor fit].

Which Potency does the source give for `CCOC(=O)Nc1sc2c(c1C(=O)OCC)CCC2` here?
Its Potency is inconclusive: 20 µM [inhibitor, partial curve].

For `COc1ccc(C)cc1NC(=O)CSc1nnc(COc2ccc(C)cc2)n1Cc1ccco1`, which Potency is on record?
Its Potency is inconclusive: 25.1 µM [inhibitor, partial curve].
